# Measurements: the supplement of paper PMC8728848
# Some of the results follow.
# How the values were obtained:
# Experiment in all cases: glycan array binding signal (z-score within array); higher = stronger binding
# Details in all cases: glycan notation: IUPAC condensed, linker removed
# [1] = target: GlcNAc(b1-3)Gal(b1-4)GlcNAc
# Method in brief: (§1)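 Glycan array data were curated from 3228 arrays in the Consortium for Functional Glycomics database and kept only where the protein sequence was available. Glycan names were converted to IUPAC-condensed notation, and columns mapping to the same glycan were averaged. The binding signal is a within-array Z-score, averaged across arrays of the same protein sequence at different concentrations or buffers and across linkers. Negative Z-scores can be read as non-binding.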
# [2] = target: GlcNAc(b1-3)Gal(b1-4)GlcNAc(b1-2)Man(a1-3)[GlcNAc(b1-3)Gal(b1-4)GlcNAc(b1-2)Man(a1-6)]Man(b1-4)GlcNAc(b1-4)GlcNAc
# Method in brief: as §1
# [3] = target: GlcNAc(b1-3)Gal(b1-4)GlcNAc(b1-2)Man(a1-3)[GlcNAc(b1-3)Gal(b1-4)GlcNAc(b1-2)Man(a1-6)]Man(b1-4)GlcNAc(b1-4)[Fuc(a1-6)]GlcNAc
# Method in brief: as §1
# [4] = target: GlcNAc(b1-3)Gal(b1-4)GlcNAc(b1-2)[GlcNAc(b1-3)Gal(b1-4)GlcNAc(b1-6)]Man(a1-6)[GlcNAc(b1-3)Gal(b1-4)GlcNAc(b1-2)Man(a1-3)]Man(b1-4)GlcNAc(b1-4)GlcNAc
# Method in brief: as §1
# [5] = target: GlcNAc(b1-3)Gal(b1-4)GlcNAc(b1-3)Gal(b1-4)GlcNAc
# Method in brief: as §1
# [6] = target: GlcNAc(b1-3)Gal(b1-4)GlcNAc(b1-3)Gal(b1-4)GlcNAc(b1-2)Man(a1-3)[GlcNAc(b1-3)Gal(b1-4)GlcNAc(b1-3)Gal(b1-4)GlcNAc(b1-2)Man(a1-6)]Man(b1-4)GlcNAc(b1-4)GlcNAc
# Method in brief: as §1
# [7] = target: GlcNAc(b1-3)Gal(b1-4)GlcNAc(b1-3)Gal(b1-4)GlcNAc(b1-2)Man(a1-3)[GlcNAc(b1-3)Gal(b1-4)GlcNAc(b1-3)Gal(b1-4)GlcNAc(b1-2)Man(a1-6)]Man(b1-4)GlcNAc(b1-4)[Fuc(a1-6)]GlcNAc
# Method in brief: as §1
# [8] = target: GlcNAc(b1-3)Gal(b1-4)GlcNAc(b1-3)Gal(b1-4)GlcNAc(b1-2)[GlcNAc(b1-3)Gal(b1-4)GlcNAc(b1-3)Gal(b1-4)GlcNAc(b1-6)]Man(a1-6)[GlcNAc(b1-3)Gal(b1-4)GlcNAc(b1-3)Gal(b1-4)GlcNAc(b1-2)Man(a1-3)]Man(b1-4)GlcNAc(b1-4)[Fuc(a1-6)]GlcNAc
# Method in brief: as §1
# [9] = target: GlcNAc(b1-3)Gal(b1-4)GlcNAc(b1-3)Gal(b1-4)GlcNAc(b1-3)Gal(b1-4)GlcNAc(b1-2)Man(a1-3)[GlcNAc(b1-3)Gal(b1-4)GlcNAc(b1-3)Gal(b1-4)GlcNAc(b1-3)Gal(b1-4)GlcNAc(b1-2)Man(a1-6)]Man(b1-4)GlcNAc(b1-4)GlcNAc
# Method in brief: as §1
# [10] = target: GlcNAc(b1-3)Gal(b1-4)GlcNAc(b1-3)Gal(b1-4)GlcNAc(b1-3)Gal(b1-4)GlcNAc(b1-2)Man(a1-3)[GlcNAc(b1-3)Gal(b1-4)GlcNAc(b1-3)Gal(b1-4)GlcNAc(b1-3)Gal(b1-4)GlcNAc(b1-2)Man(a1-6)]Man(b1-4)GlcNAc(b1-4)[Fuc(a1-6)]GlcNAc
# Method in brief: as §1
# [11] = target: GlcNAc(b1-3)Gal(b1-4)GlcNAc(b1-3)Gal(b1-4)GlcNAc(b1-3)Gal(b1-4)GlcNAc(b1-2)[GlcNAc(b1-3)Gal(b1-4)GlcNAc(b1-3)Gal(b1-4)GlcNAc(b1-3)Gal(b1-4)GlcNAc(b1-6)]Man(a1-6)[GlcNAc(b1-3)Gal(b1-4)GlcNAc(b1-3)Gal(b1-4)GlcNAc(b1-3)Gal(b1-4)GlcNAc(b1-2)Man(a1-3)]Man(b1-4)GlcNAc(b1-4)[Fuc(a1-6)]GlcNAc
# Method in brief: as §1
# [12] = target: GlcNAc(b1-3)Gal(b1-4)GlcNAc(b1-3)Gal(b1-4)GlcNAc(b1-3)Gal(b1-4)GlcNAc(b1-3)Gal(b1-4)GlcNAc(b1-2)Man(a1-3)[GlcNAc(b1-3)Gal(b1-4)GlcNAc(b1-3)Gal(b1-4)GlcNAc(b1-3)Gal(b1-4)GlcNAc(b1-3)Gal(b1-4)GlcNAc(b1-2)Man(a1-6)]Man(b1-4)GlcNAc(b1-4)GlcNAc
# Method in brief: as §1
# [13] = target: GlcNAc(b1-3)Gal(b1-4)GlcNAc(b1-3)Gal(b1-4)GlcNAc(b1-3)Gal(b1-4)GlcNAc(b1-3)Gal(b1-4)GlcNAc(b1-2)Man(a1-3)[GlcNAc(b1-3)Gal(b1-4)GlcNAc(b1-3)Gal(b1-4)GlcNAc(b1-3)Gal(b1-4)GlcNAc(b1-3)Gal(b1-4)GlcNAc(b1-2)Man(a1-6)]Man(b1-4)GlcNAc(b1-4)[Fuc(a1-6)]GlcNAc
# Method in brief: as §1
# [14] = target: GlcNAc(b1-3)Gal(b1-4)GlcNAc(b1-3)Gal(b1-4)GlcNAc(b1-3)Gal(b1-4)GlcNAc(b1-3)Gal(b1-4)GlcNAc(b1-2)[GlcNAc(b1-3)Gal(b1-4)GlcNAc(b1-3)Gal(b1-4)GlcNAc(b1-3)Gal(b1-4)GlcNAc(b1-3)Gal(b1-4)GlcNAc(b1-6)]Man(a1-6)[GlcNAc(b1-3)Gal(b1-4)GlcNAc(b1-3)Gal(b1-4)GlcNAc(b1-3)Gal(b1-4)GlcNAc(b1-3)Gal(b1-4)GlcNAc(b1-2)Man(a1-3)]Man(b1-4)GlcNAc(b1-4)[Fuc(a1-6)]GlcNAc
# Method in brief: as §1
# [15] = target: GlcNAc(b1-3)Gal(b1-4)GlcNAc(b1-3)Gal(b1-4)GlcNAc(b1-3)GalNAc
# Method in brief: as §1
# [16] = target: GlcNAc(b1-3)Gal(b1-4)GlcNAc(b1-3)GalNAc
# Method in brief: as §1
# [17] = target: GlcNAc(b1-3)Gal(b1-4)GlcNAc(b1-3)[GlcNAc(b1-3)Gal(b1-4)GlcNAc(b1-3)]GalNAc
# Method in brief: as §1
# [18] = target: GlcNAc(b1-3)Gal(b1-4)GlcNAc(b1-6)[Gal(b1-3)]GalNAc
# Method in brief: as §1
# [19] = target: GlcNAc(b1-3)Gal(b1-4)GlcNAc(b1-6)[GlcNAc(b1-3)Gal(b1-3)]GalNAc
# Method in brief: as §1
binder,measurement,setting,value
GSL-I (Griffonia simplicifolia) (protein) FNLPNFWSDVKDNIIFQGDANTTAGTLQLCKTNQYGNPLQYRAGRALYSDPVQLWDNKTGSVASFYTEFTFFLKITGDGPADGLAFFLAPPDSDVKDAGAYLGLFNKSTATQPSKNQVVAVEFDTWKNTDFPEPSYRHIGINVNSIVSVATKRWEDSDIFSGKIATARISYDGSAKILTVVLSYPDGADYILSHSVDLSKNLPNPIRVGISASTGANQFLTVYVLSWRFSSALQSTSVNAAMGPEIIRTVV,glycan array binding signal (z-score),[1],-0.251
same,glycan array binding signal (z-score),[2],-0.236
same,glycan array binding signal (z-score),[3],-0.024
same,glycan array binding signal (z-score),[4],0.18
same,glycan array binding signal (z-score),[5],-0.181
same,glycan array binding signal (z-score),[6],0.363
same,glycan array binding signal (z-score),[7],-0.169
same,glycan array binding signal (z-score),[8],0.036
same,glycan array binding signal (z-score),[9],-0.117
same,glycan array binding signal (z-score),[10],0.086
same,glycan array binding signal (z-score),[11],-0.004
same,glycan array binding signal (z-score),[12],-0.1
same,glycan array binding signal (z-score),[13],0.173
same,glycan array binding signal (z-score),[14],0.004
same,glycan array binding signal (z-score),[15],-0.315
same,glycan array binding signal (z-score),[16],-0.299
same,glycan array binding signal (z-score),[17],-0.249
same,glycan array binding signal (z-score),[18],-0.235
same,glycan array binding signal (z-score),[19],-0.254
